First the molecules themselves.
B1: PhoQ; a variant is named by its letters at X, in order, P23837 (parent)
chain: MKKLLRLFFPLSLRVRFLLATAAVVLVLSLAYGMVALIGYSVSFDKTTFRLLRGESNLFYTLAKWENNKLHVELPENIDKQSPTMTLIYDENGQLLWAQRDVPWLMKMIQPDWLKSNGFHEIEADVNDTSLLLSGDHSIQQQLQEVREDDDDAEMTHSVAVNVYPATSRMPKLTIVVVDTIPVELKSSYMVWSWFIYVLSANLLLVIPLLWVAAWWSLRPIEALAKEVRELEEHNRELLNPATTRELTSLVRNLNRLLKSERERYDKYRTTLTDLTHSLKTPLXXLQXXLRSLRSEKMSVSDAEPVMLEQISRISQQIGYYLHRASMRGGTLLSRELHPVAPLLDNLTSALNKVYQRKGVNISLDISPEISFVGEQNDFVEVMGNVLDNACKYCLEFVEISARQTDEHLYIVVEDDGPGIPLSKREVIFDRGQRVDTLRPGQGVGLAVAREITEQYEGKIVAGESMLGGARMEVIFGRQHSAPKDE

This is one part of the list.

The variants in the test derive from B1. The test can be described thus: enrichment ratio after two sorts for PhoP signalling (ratio (wild type AVST 3.29)); higher = more functional. The following applies: with PhoP (E. coli).
Turning to KFQL, the enrichment ratio is not above 0.25.

NGWS: the enrichment ratio is not above 0.25. Take MREM: the enrichment ratio is not above 0.25. As for WWLT, the figure is not above 0.25; as for IMST, not above 0.25. In the case of DSYK it was not above 0.25.

GTIT: the enrichment ratio is not above 0.25. As for GICY, the figure is 1.24; as for EVWI, not above 0.25.

Consider SKPD, for which the enrichment ratio is not above 0.25. As for TAFM, the figure is not above 0.25. As for VKSY, the figure is not above 0.25; as for PWDW, not above 0.25; as for TNPT, not above 0.25. As for MGLE, the figure is 9.21; as for YAQE, not above 0.25. For the variant VMRS, the enrichment ratio was not above 0.25. Regarding KTYS, the enrichment ratio is not above 0.25.

Turning to LSNA, the enrichment ratio was not above 0.25. In the case of PHAV it was not above 0.25; in that of FYEG, not above 0.25; in that of VEFT, 0.92. As for IALM, the figure is 6.67. In the case of PEGA it was not above 0.25; in that of MQPM, not above 0.25; in that of VNWA, not above 0.25.

Turning to LWIM, the enrichment ratio was not above 0.25.

On to TQGK, for which the enrichment ratio is not above 0.25.

FRCL: the enrichment ratio was not above 0.25. As for WICC, the figure is not above 0.25; as for KVQW, not above 0.25.

On to VSKM, for which the enrichment ratio is not above 0.25. Regarding FRFP, the enrichment ratio is not above 0.25.

As for PQHL, the enrichment ratio was not above 0.25. As for IWCE, the figure is not above 0.25; as for GHLT, not above 0.25. As for FISI, the figure is not above 0.25; as for IKEG, not above 0.25; as for ACRS, not above 0.25. Take SHYR: the enrichment ratio was not above 0.25. In the case of AQHP it was not above 0.25; in that of TYKV, not above 0.25; in that of IMIG, not above 0.25. Regarding FSTE, the enrichment ratio was not above 0.25.

As for PVFV, the enrichment ratio is not above 0.25.

Take IQLQ: the enrichment ratio is not above 0.25. WDPS: the enrichment ratio was not above 0.25.

In the case of GTLY, the enrichment ratio is 6.3.

For ASRK, the enrichment ratio was not above 0.25.

For the variant LSPP, the enrichment ratio was not above 0.25.

In the case of YSTF, the enrichment ratio was not above 0.25.

Regarding EYST, the enrichment ratio is not above 0.25. In the case of ENKR it was not above 0.25; in that of LIGL, not above 0.25. In the case of MAMT it was not above 0.25.

On to MICY, for which the enrichment ratio was not above 0.25. In the case of LTCV it was not above 0.25; in that of ELWE, not above 0.25; in that of KSCP, 1.04. Regarding TREK, the enrichment ratio was not above 0.25. With NVAR, the enrichment ratio is not above 0.25. As for TKSV, the enrichment ratio was 4.01. As for WDRW, the figure is not above 0.25. As for HTSA, the enrichment ratio was not above 0.25.

Turning to SPRF, the enrichment ratio was not above 0.25. As for AFNE, the enrichment ratio was not above 0.25. Regarding IIFP, the enrichment ratio is not above 0.25. SRAR: the enrichment ratio is not above 0.25. As for PRNP, the figure is not above 0.25; as for GMHH, not above 0.25; as for GETN, not above 0.25. FIGP: the enrichment ratio is not above 0.25. In the case of ELDF, the enrichment ratio was not above 0.25. On to ECDI, for which the enrichment ratio is not above 0.25. As to VCQS, the enrichment ratio is not above 0.25. As for LDAQ, the figure is not above 0.25; as for YYKH, not above 0.25. FCLV: the enrichment ratio came out at 7.03. In the case of MFYG it was not above 0.25.

In the case of ESDI, the enrichment ratio is not above 0.25. As for DCMG, the figure is not above 0.25; as for KIEP, not above 0.25. As for QVII, the figure is not above 0.25; as for FEPC, not above 0.25.

QLTE: the enrichment ratio was not above 0.25. In the case of MASS it was not above 0.25; in that of ACLA, 11.6. In the case of FRCR it was not above 0.25; in that of YAPG, not above 0.25; in that of YTRR, not above 0.25. As for YYSL, the figure is not above 0.25; as for GHQK, not above 0.25. For the variant KGAA, the enrichment ratio was not above 0.25. For the variant FWMC, the enrichment ratio is not above 0.25.

For PKGT, the enrichment ratio was not above 0.25. As for WVYP, the enrichment ratio is not above 0.25. As for QNMS, the figure is not above 0.25.

As to PYCC, the enrichment ratio was not above 0.25. In the case of WHYR it was not above 0.25. As for EMIC, the figure is not above 0.25; as for DIAQ, not above 0.25; as for YRIW, not above 0.25.

Take FGTS: the enrichment ratio is not above 0.25.

As to FWDT, the enrichment ratio was not above 0.25.

In the case of NYCL, the enrichment ratio was not above 0.25. As to YEED, the enrichment ratio was not above 0.25. Consider CLPR, for which the enrichment ratio is not above 0.25. In the case of ERCH it was not above 0.25; in that of DNSS, not above 0.25; in that of HSML, 9.71.

With DVFA, the enrichment ratio was not above 0.25. DHKE: the enrichment ratio was not above 0.25.

Turning to WAMR, the enrichment ratio was not above 0.25. In the case of GMAI it was 8.69; in that of NRIS, not above 0.25.

Consider FVWG, for which the enrichment ratio was not above 0.25. As for SKIS, the figure is 3.41; as for QLFA, not above 0.25. As for LNVW, the figure is not above 0.25. In the case of QIPE it was not above 0.25; in that of DLDS, not above 0.25. In the case of LELT, the enrichment ratio came out at 4.72. Turning to EYRP, the enrichment ratio is not above 0.25. Take VPRL: the enrichment ratio was not above 0.25. As for HPMA, the figure is not above 0.25; as for DMAV, not above 0.25. As for LCGN, the figure is not above 0.25; as for NYYV, not above 0.25.

For AKSE, the enrichment ratio was not above 0.25. For SDTV, the enrichment ratio amounted to 13.5. In the case of RVTE it was not above 0.25; in that of RVEL, not above 0.25; in that of QGVP, not above 0.25. TLAW: the enrichment ratio worked out at 0.571.

Regarding RNRG, the enrichment ratio was not above 0.25. Take KVQF: the enrichment ratio is not above 0.25.

Take AMQI: the enrichment ratio was not above 0.25. On to IPWS, for which the enrichment ratio was not above 0.25. YAPI: the enrichment ratio is not above 0.25. As to WMCD, the enrichment ratio is not above 0.25. Turning to LLPW, the enrichment ratio is not above 0.25. Take MFDW: the enrichment ratio is not above 0.25. As to MMRT, the enrichment ratio is not above 0.25. In the case of DHYQ it was not above 0.25; in that of HYGG, not above 0.25; in that of NFDH, not above 0.25. Turning to WNLY, the enrichment ratio is not above 0.25. In the case of EQCF, the enrichment ratio was not above 0.25. In the case of DTMF it was not above 0.25; in that of RSSG, not above 0.25; in that of NSEA, not above 0.25. Take GLTL: the enrichment ratio was determined as 8.42. As for WCVW, the figure is not above 0.25.
